These are yes or no findings as the source states them, for the method shown. Binding seen in cells or lysates may run through a third protein. Some results given as binding are weak or reduced against the parent protein; the word gives no strength. Where a sequence is shown, tags or fusion partners need not be part of it.
Biological target: endogenous RAD51 (HeLa cells) (human (endogenous in HeLa)) (UniProt Q06609)
Assay: co-IP; lysates of HeLa cells stably expressing FLAG-HA-NLS-fused canine BRCA2 peptides; 3 μg anti-RAD51 at 4 °C overnight, Protein G Dynabeads; peptides detected with anti-FLAG

Chains of the proteins cited; added tags and fusions are not shown.
UniProt Q06609: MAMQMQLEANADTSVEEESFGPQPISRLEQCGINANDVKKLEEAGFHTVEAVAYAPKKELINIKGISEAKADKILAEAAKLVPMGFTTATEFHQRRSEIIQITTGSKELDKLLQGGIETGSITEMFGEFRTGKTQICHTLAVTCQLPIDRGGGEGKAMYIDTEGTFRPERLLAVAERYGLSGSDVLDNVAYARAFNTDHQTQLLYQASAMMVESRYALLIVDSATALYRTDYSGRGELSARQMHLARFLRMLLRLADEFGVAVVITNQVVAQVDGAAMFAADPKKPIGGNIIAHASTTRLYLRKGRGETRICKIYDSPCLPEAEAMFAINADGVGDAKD

B1: FLAG-HA-NLS-fused cBRC1-HCR-BRC2 (canine BRCA2 993–1248 aa) (domain or fragment, UniProt Q8MKI9 993-1248)
chain: PISNHSFENGFKTASNKEIKLSENNIRKSKMLFKDIEEHYPTNLACLEIVNTSSLESQKKPSKSHALDPQSINIISGFVQNSTYVSDSESGHTAPPTLSLKQDFDSNRNLTPSQKAEITELSTILEESGSQFEFTQFRKPSHIIQKNPFEMPENQLTILNSTSKEWKDDDLHLTTNAPSISQVDSKKSEGIIGGKQKFACLSRTSCNRSASGYSTDKNEVEFRGFYSARGTKLNVGSEALQKAKKLFSDLENINEE
- binding: binds

Reference: article PMC9959916
